Results: PMC4336329 (PLoS ONE, 2015)
The whole screen tested about 310,000 compounds, of which about 2,200 (0.71%) showed an effect of 50% or more. The effect is printed as a negative number. The list shows a part of the results.

Molecular target: human ether-à-go-go-related gene (hERG) potassium channel (human, UniProt Q12809)
Experiment: primary screen, population patch clamp on CHO cells stably expressing hERG

human ether-à-go-go-related gene (hERG) potassium channel, sequence (Q12809 whole entry, looked up): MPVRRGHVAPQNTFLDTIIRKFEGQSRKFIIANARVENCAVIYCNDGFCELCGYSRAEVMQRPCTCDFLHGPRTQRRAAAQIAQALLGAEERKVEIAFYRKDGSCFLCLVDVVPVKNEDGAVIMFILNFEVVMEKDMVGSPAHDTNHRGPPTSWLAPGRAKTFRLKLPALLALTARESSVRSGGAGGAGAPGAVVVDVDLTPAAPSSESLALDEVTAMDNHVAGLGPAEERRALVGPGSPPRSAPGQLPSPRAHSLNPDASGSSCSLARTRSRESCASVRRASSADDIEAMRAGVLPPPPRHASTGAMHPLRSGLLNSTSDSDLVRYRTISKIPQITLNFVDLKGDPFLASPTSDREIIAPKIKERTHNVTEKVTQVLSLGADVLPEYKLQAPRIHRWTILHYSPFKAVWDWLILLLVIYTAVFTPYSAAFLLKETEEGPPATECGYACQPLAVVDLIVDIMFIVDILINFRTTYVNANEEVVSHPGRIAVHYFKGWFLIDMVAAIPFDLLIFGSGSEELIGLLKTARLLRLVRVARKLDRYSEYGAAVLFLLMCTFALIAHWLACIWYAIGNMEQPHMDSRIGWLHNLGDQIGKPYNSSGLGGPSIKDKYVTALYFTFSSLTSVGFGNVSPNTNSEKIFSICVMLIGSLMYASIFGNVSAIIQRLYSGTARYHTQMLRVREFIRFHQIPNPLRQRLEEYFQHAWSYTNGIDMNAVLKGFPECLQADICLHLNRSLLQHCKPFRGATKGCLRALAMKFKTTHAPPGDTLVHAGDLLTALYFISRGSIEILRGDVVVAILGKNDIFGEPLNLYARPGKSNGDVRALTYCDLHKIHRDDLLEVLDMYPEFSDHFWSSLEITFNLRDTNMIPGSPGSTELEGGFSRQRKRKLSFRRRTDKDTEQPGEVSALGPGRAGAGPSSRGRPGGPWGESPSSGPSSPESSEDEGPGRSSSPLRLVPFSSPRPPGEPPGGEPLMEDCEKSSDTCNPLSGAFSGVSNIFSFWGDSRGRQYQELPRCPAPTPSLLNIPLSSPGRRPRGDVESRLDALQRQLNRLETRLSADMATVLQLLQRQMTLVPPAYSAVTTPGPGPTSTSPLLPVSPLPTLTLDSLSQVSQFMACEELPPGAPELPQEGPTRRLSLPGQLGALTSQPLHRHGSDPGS

SMILES	hERG current change (%, negative = inhibition) at 1uM
Cc1cc(C)nc(SCC(=O)NNC(=O)c2cccs2)n1	2.52%
CCNC(=S)NCc1ccco1	6.83%
CCOC(=O)CSC1=C(C#N)C(c2ccccc2C)C2=C(CCCC2=O)N1 (stereo not shown)	4.84%
OCCC1CN(Cc2ccc3c(c2)CCO3)CCN1C1CCCC1 (stereo not shown)	2.48%
Fc1ccc(-c2csc(Nc3ccccn3)n2)cc1	14%
Cl.OCCN1CCN(CC(O)COCCOc2ccc(Br)cc2)CC1 (stereo not shown)	-8.42%
Cc1cc(C(=O)N/N=C/c2cccc(OC(=O)c3cccc(Br)c3)c2)n[nH]1	12.7%
CNC[C@H](CC1CCCCC1)NC[C@H](Cc1ccccc1)NCCC12CC3CC(CC(C3)C1)C2	16%
O=C1NC(=O)C(=Cc2ccc(-c3ccccc3[N+](=O)[O-])o2)C(=O)N1	6.55%
COc1ccc(CNC(=O)COc2ccc(OC)cc2)cc1	14.1%
COc1ccc(C2(C)NC(=O)N(CC(=O)NC(C)c3ccc(CC(C)C)cc3)C2=O)cc1 (stereo not shown)	13.3%
COC(=O)c1ccsc1NC(=O)CN1CCN(c2ncccn2)CC1	10.1%
O=C(NNC(=O)c1ccncc1)Nc1ccc([N+](=O)[O-])cc1	3.3%
CCCOc1cccc(C(=O)NCCNC(=O)c2ccccn2)c1	11.2%
O[C@@H]1CN(Cc2ccc(-n3cccn3)cc2)CC[C@H]1N1CCN(c2ccccc2F)CC1	-39.7%
Cc1ccc(C(=O)N2CCN(S(C)(=O)=O)C2)cc1	-2%
Cc1ccc(S(=O)(=O)NCCC(=O)Nc2cc(S(=O)(=O)N(C)C)ccc2C)cc1C	14.3%
CCCCOc1ccc(C(=O)NCC(=O)NCCOc2ccccc2OC)cc1	5.67%
CCC(=O)Nc1nnc(SCC(=O)NC2CCCC2)s1	15.7%
O=C(Nc1ccc2c(c1)CCC2)c1cccc(S(=O)(=O)Nc2ccccc2Cl)c1	11.9%
O=C1c2ccccc2S(=O)(=O)N1Cc1cccc(S(=O)(=O)N2CCOCC2)c1	12.2%
CCOC(=O)c1ccc2c(c1)N(CC)C(=O)c1ccccc1S2	9.82%

SMILES	hERG current change (%, negative = inhibition) at 1uM
COc1ccc(-c2cn(-c3ccc(C)cc3)c(=O)n2CC(=O)Nc2ccc(OC)c(OC)c2)cc1	7.81%
Oc1csc(Cc2nc(-c3ccc(-c4ccccc4)cc3)cs2)n1	11.1%
N#Cc1c(Cl)nsc1NC(=O)c1ccccc1	5.52%
COc1ccc(CCNC(=O)C(=O)NCC2OCCN2S(=O)(=O)c2ccc(Br)cc2)cc1OC (stereo not shown)	9.31%
O=C(CCc1ccccc1)N=C1SC2CS(=O)(=O)CC2N1c1ccccc1F (stereo not shown)	18.4%
CCOc1ccccc1NC(=O)CN1C(=O)COc2ccc(C)cc21	15.1%
COCC(=O)Nc1ccc(N(C)C)cc1	12.1%
O=C(CC1C(=O)NCCN1Cc1ccoc1)NCc1cccc(OC(F)(F)F)c1 (stereo not shown)	5.68%
COC(=O)c1sccc1NC(=S)N(C)C1CCCCC1	4.75%
O=S(=O)([O-])c1cc(O)ccc1O.[K+]	11.3%
CCCCn1cnc2c(sc3nc4c(cc32)CSC(C)(C)C4)c1=O	18.7%
Cc1ccc(NC(=O)CN2CCC(C(N)=O)CC2)cc1[N+](=O)[O-]	-5.78%
Cc1ccsc1-c1nc(CN2CCN(C)C(=O)[C@@H]2C)c(C)o1	-7.78%
CCC(C)[C@H](N)c1nnc(SCC(=O)Nc2cccc(Cl)c2)o1.Cl (stereo partly shown)	-2.51%
CCN(CC)c1ccc(NC(=O)CN2CCN(c3nc(C)cc(C)n3)CC2)cc1	8.96%
COc1ccc(CCc2cc(OC)cc(=O)o2)cc1	9.87%
O=C(c1ccc(Cl)c(Cl)c1)N1CCC(=O)N(C(COCc2ccccc2)Cc2ccccc2)CC1 (stereo not shown)	-11.6%
O=C(COc1ccc([N+](=O)[O-])cc1)NC(C(=O)O)C(O)c1cccc([N+](=O)[O-])c1 (stereo not shown)	12.6%
COc1ccc(S(=O)(=O)Nc2c(C(=O)O)[nH]c3ccc(OC)cc23)c(OC)c1	28%
CCOc1ccc(S(=O)(=O)N(CC)CC(=O)NCc2cccnc2)cc1	-23.7%
O=CNCC(=O)NC1CCCCCC1	17.8%
O=C(NCc1ccc(-c2csnn2)cc1)c1cc(Cl)cc(Cl)c1	6.88%

SMILES	hERG current change (%, negative = inhibition) at 1uM
CCn1nc(C)c(CNC(=O)c2cc(COc3ccccc3SC)on2)c1C	16.6%
COc1cc2cc(Oc3ccc4ccc(=O)oc4c3)c(=O)oc2cc1O	14.7%
CN(C(=O)COc1ccc(Oc2ccccc2)cc1)C1CCS(=O)(=O)C1 (stereo not shown)	12.3%
CC1CCCCC12NC(=O)N(CC(=O)c1ccc[nH]1)C2=O (stereo not shown)	7.93%
Cn1cnnc1SC1CCCCC1NS(=O)(=O)c1ccccc1 (stereo not shown)	5.61%
O=C(Nc1ccc(-c2csc(Nc3cccc(C(F)(F)F)c3)n2)cc1)c1cccc(C(F)(F)F)c1	17%
COc1ccccc1CNC(=O)Cn1nc(C(F)(F)F)cc1C	9.27%
Brc1cccc(CNc2nc3ccccc3n2CCN2CCCCC2)c1	-0.507%
CC(Oc1ccc2cc(-c3ccccc3)c(=O)oc2c1)C(=O)NCC1CCC(C(=O)O)CC1 (stereo not shown)	14.2%
COC(=O)c1sccc1NC(=O)Nc1ccccc1C	8.72%
COCn1c(-c2ccccc2)nc2ccccc21	4.18%
CC(C)=C(NC(=O)c1ccccc1)C(=O)Nc1cccc(C(=O)O)c1	15.5%
Cc1nc(N)sc1-c1csc(Nc2cccc(O)c2)n1	5.63%
CCc1nnc(NC(=O)C2CC(=O)N(Cc3ccccc3)C2)s1 (stereo not shown)	4.87%
CCOC(=O)/C(C#N)=C/c1cn(CCOc2ccc(OC)cc2)c2ccccc12	3.46%
O=C(CSc1nc2ccccc2[nH]1)Nc1ccc2[nH]c(=O)[nH]c2c1	8.14%
CC(=O)N1CCN(c2nc(N)c(C#N)c(CC#N)c2C#N)CC1	1.33%
COC(=O)C1=C(C)N(C)C(=O)NC1c1cccc2ccccc12 (stereo not shown)	16.1%
O=C(O)Cc1cc(C(=O)Nc2ccc(Br)cc2)sc1-c1ccccc1	11.8%
Cn1c(C(=O)NCCCN2CCN(c3ccccc3F)CC2)cc2c(=O)[nH]c3ccccc3c21	0.27%
COc1ccccc1NC(=O)CC(c1ccc(OC(C)C)cc1)c1ccccc1OC (stereo not shown)	2.65%
C=CCNC(=O)C1CC(=O)N(c2ccc(OCC(=O)NCc3ccccc3)cc2)C1 (stereo not shown)	0.925%

SMILES	hERG current change (%, negative = inhibition) at 1uM
COc1ccc(NC(=O)c2ccc(NCCN3C(=O)CCC3=O)c([N+](=O)[O-])c2)cc1	10%
Cc1cccc(NC(=S)NCC23C=CC(O2)C2C(=O)N(c4ccc(Cl)cc4)C(=O)C23)c1 (stereo not shown)	13.7%
CCn1cc([N+](=O)[O-])c(C(=O)N2N=C(c3ccc(O)c(OC)c3)CC2c2ccccc2O)n1 (stereo not shown)	18.1%
Cc1cc([N+](=O)[O-])ccc1-c1ccc(C2Nc3ccccc3C(=O)N2O)o1 (stereo not shown)	1.56%
Cc1ccccc1CN1CCN(Cc2ccc3cccc(F)c3n2)CC1CCO (stereo not shown)	-0.311%
COC(=O)c1ccccc1OC(=O)c1cc[n+]([O-])cc1	13.1%
Cc1nc(SCC(=O)NC2CCCC2)[nH]c(=O)c1Cc1ccccc1	10.5%
Cn1nc(C(=O)NCCc2ccc(S(N)(=O)=O)cc2)c2ccccc2c1=O	3.53%
Cc1ccc(NC(=O)CSc2nnc(Cc3cccn3C)n2-c2ccc(F)cc2)cc1	9.87%
COc1ccc(-c2csc(NC(=O)c3cc(C)on3)c2C#N)cc1OC	-1.78%
CCN(CC)C(=O)c1ccc(NC(=O)COc2ccc([N+](=O)[O-])cc2Cl)cc1	-5.1%
CC(=O)N(Cc1ccccc1)c1ccccc1C(=O)O	15.7%
CCN(CC)c1cccc(OC(=O)c2cccnc2Cl)c1	14.9%
O=C1NC2(CCCCC2)C(=O)N1CCS(=O)(=O)Oc1ccc(Br)cc1	3.14%
O=C(Nc1nnc(CCS(=O)(=O)c2ccc3ccccc3c2)s1)c1ccc([N+](=O)[O-])cc1	15.4%
O=C1CN(C(=O)CN2CCCC2)C(c2ccccc2)c2cc(Br)ccc2N1 (stereo not shown)	-21.5%
CC(=O)OCCNC(=O)Cn1cnc2c1c(=O)n(C)c(=O)n2C	4.86%
O=C(CCCCCNC(=O)c1ccccc1)N/N=C/c1ccccc1	6.67%
COc1ccccc1NC(=O)c1ccc(NC(=O)CSc2ncccn2)cc1	1.84%
Cc1ccc2nc(-c3ccc(SCC(=O)N4CCc5ccccc54)nc3)[nH]c2c1	7.85%
CCCc1nnc(NC(=O)C2CCN(C(=O)c3ccco3)CC2)s1	6.18%
COc1ccc(CCNC(=O)C2CCN(S(=O)(=O)c3ccc(Cl)cc3)CC2)cc1OC	1.6%
